Experimental data taken from patent US9434711B2 (Janssen Pharmaceutica, NV, priority 2007, dated 2016).
“And” between values parts separate entries of the source, which are not always exact repeats. Equal entries are not always repeated. The name of at least one read-out is uncertain.

Assays:
Assay type in all cases: in vivo, rat
[1] = tested on: Male Sprague Dawley rats; assay: Reversal of Icilin-Induced Behaviors in Rats; conditions: 30 mg/kg p.o., 1 h post-icilin
Experimental: Male Sprague Dawley rats (225-450 g, Charles River Labs, n=4-6/treatment) were used to evaluate the ability of selected compounds of the formula (I) to reverse icilin-induced “wet-dog” shakes. Icilin was administered in PEG-400 or 10% solutol/H2O, at 1.0 or 3.0 mg/kg, i.p. and spontaneous “wet-dog” shakes (WDS) were counted 10-20 minutes post-icilin. […] Results are presented as a percent inhibition of shakes, which was calculated as [1-(test compound WDS count/vehicle WDS count)]×100.

[2] = tested on: Male Sprague Dawley rats; assay: Inhibition of Icilin-Induced "Wet-Dog" Shakes in Rats; conditions: Na salt form
Experimental: Male Sprague Dawley rats (220-450 g, Charles River Labs, n=6-9/treatment) were used to evaluate the ability of selected compounds of the formula (I) to block icilin-induced “wet-dog” shakes (WDS). Compounds of the formula (I) were administered in an appropriate vehicle, such as hydroxypropyl-β-cyclodextrin (HPβCD), methocellulose, 10% Solutol, or H2O, or the like, by the appropriate route, i.p. or p.o., 30-120 minutes before icilin. Icilin was administered in PEG-400 or 10% solutol/H2O, at 1.0 or 3.0 mg/kg, i.p. and spontaneous “wet-dog” shakes were counted 10-20 minutes post-icilin. Results are presented as a percent inhibition of shakes, which was calculated as [1-(test compound WDS count/vehicle WDS count)]×100.

[3] = tested on: Male Sprague Dawley rats; assay: Chronic Constriction Injury (CCI)-Induced Model of Neuropathic Pain, Acetone-Induced Hypersensitivity; conditions: 30 mg/kg p.o., Na salt form
Description: Male Sprague Dawley rats (225-450 g; n=5-8/treatment) were used to evaluate the ability of selected compounds of the formula (I) to reverse CCI-induced cold hypersensitivity. Four loose ligatures of 4-0 chromic gut were surgically placed around the left sciatic nerve under inhalation anesthesia as described by Bennett et al (Bennett G J, Xie Y K. Pain 1988, 33(1): 87-107). Fourteen to 35 days following CCI surgery, subjects were placed in elevated observation chambers containing wire mesh floors and five applications of acetone (0.05 mL/application separated by approximately 5 minutes) were spritzed onto the plantar surface of the paw using a multidose syringe. An abrupt withdrawal or lifting of the paw was considered a positive response. The number of positive responses was recorded for each rat over the five trials. Following baseline withdrawal determinations, compounds of formula (I) are administered in an appropriate vehicle, such as hydroxypropyl-β-cyclodextrin (HP β CD), methylcellulose, Methocel, 10% Solutol, or H2O, or the like, by the appropriate route, i.p. or p.o. […] Results are presented as a percent inhibition of […], which was calculated for each subject as [1−(test compound withdrawals/pre-test withdrawals)]×100 and then averaged by treatment.

[4] = dose 30 p.o., HPbCD, 60 min pre-icilin
[5] = dose 10 p.o., HPbCD, 60 min pre-icilin

O=S(=O)(c1ccccc1)N(Cc1ccc(F)c(C(F)(F)F)c1)c1sc2ccccc2c1Br [Compound 177, N-(3-Bromo-benzo[b]thiophen-2-yl)-N-(4-fluoro-3-trifluoromethyl-benzyl)-benzenesulfonamide]
% Inhibition [1]: 52%

O=C(O)c1ccc(S(=O)(=O)N(CCC(F)(F)F)c2sc3ccccc3c2Br)cc1 [Compound 271, N-(3-Bromo-benzo[b]thiophen-2-yl)-N-(3,3,3-trifluoro-propyl)-4-carboxy-benzenesulfonamide]
% Inhibition ([2]; dose 1 p.o., Water, 30 min pre-icilin): 28% | % Inhibition ([2]; dose 3 p.o., Water, 30 min pre-icilin): 35% | % Inhibition ([2]; dose 10 p.o., Water, 30 min pre-icilin): 46% | % Inhibition ([2]; dose 30 p.o., Water, 30 min pre-icilin): 88% and 65% | Percent Inhibition ([3]; HPbCD, pretreatment 1 hr): 77% and 44%

O=C(O)c1ccc(S(=O)(=O)N(CCCCC(F)(F)F)c2sc3ccccc3c2Br)cc1 [Compound 395, N-(3-Bromo-benzo[b]thiophen-2-yl)-N-(5,5,5-trifluoro-pentyl)-4-carboxy-benzenesulfonamide]
% Inhibition ([2]; dose 1 p.o., Water, 60 min pre-icilin): 15% | % Inhibition ([2]; dose 3 p.o., Water, 60 min pre-icilin): 26% | % Inhibition ([2]; dose 10 p.o., Water, 60 min pre-icilin): 55% | % Inhibition ([2]; dose 30 p.o., HPbCD, 30 min pre-icilin): 100% | % Inhibition ([2]; dose 30 p.o., Water, 60 min pre-icilin): 88% | Percent Inhibition ([3]; Water, pretreatment 2 hr): 38%

O=c1[nH]c(-c2ccc(S(=O)(=O)N(CCC3CC3)c3sc4ccccc4c3Cl)cc2)no1 [Compound 627, N-(3-Chloro-benzo[b]thiophen-2-yl)-N-(cyclopropyl-ethyl)-4-(5-oxo-4,5-dihydro-[1,2,4]oxadiazol-3-yl)-benzenesulfonamide]
% Inhibition [2, 4]: 0%

O=S(=O)(c1ccc(-c2nnn[nH]2)cc1)N(CCC1CC1)c1sc2ccccc2c1Cl [Compound 635, N-(3-Chloro-benzo[b]thiophen-2-yl)-N-(2-cyclopropyl-ethyl)-4-(1H-tetrazol-5-yl)-benzenesulfonamide]
% Inhibition ([2]; dose 3 p.o., HPbCD, 60 min pre-icilin): 31% | % Inhibition [2, 5]: −8% | % Inhibition [2, 4]: 53% | % Inhibition ([2]; dose 56 p.o., HPbCD, 60 min pre-icilin): 72%

Cc1c(N(CCCCC(F)(F)F)S(=O)(=O)c2ccc(-c3nsc(=O)[nH]3)cc2)sc2ccccc12 [Compound 640, N-(3-Methyl-benzo[b]thiophen-2-yl)-N-(5,5,5-trifluoro-pentyl)-4-(5-oxo-4,5-dihydro-[1,2,4]thiadiazol-3-yl)-benzenesulfonamide]
% Inhibition [2, 4]: 20%

O=C(O)c1ccc(S(=O)(=O)N(Cc2ccc(OC(F)(F)F)cc2)c2sc3ccccc3c2C2CC2)cc1 [Compound 755, N-(3-Cyclopropyl-benzo[b]thiophen-2-yl)-N-(4-trifluoromethoxyl-benzyl)-4-carboxy-benzenesulfonamide]
% Inhibition [2, 5]: 99%

O=C(O)c1ccc(S(=O)(=O)N(Cc2ccc(OC(F)(F)F)cc2)c2sc3ccccc3c2C2CCC2)cc1 [Compound 756, N-(3-Cyclobutyl-benzo[b]thiophen-2-yl)-N-(4-trifluoromethoxy-benzyl)-4-carboxy-benzenesulfonamide]
% Inhibition [2, 5]: 100%

Cc1c(N(Cc2ccc(F)c(C(F)(F)F)c2)S(=O)(=O)c2ccc(-c3nsc(=O)[nH]3)cc2)sc2ccccc12 [Compound 784, N-(3-Methyl-benzo[b]thiophen-2-yl)-N-(4-fluoro-3-trifluoromethyl-benzyl)-4-(5-oxo-4,5-dihydro-[1,2,4]thiadiazol-3-yl)-benzenesulfonamide]
% Inhibition [2, 4]: 79%
